Assay results as given in article PMC4336329 (PLoS ONE, 2015).
The whole screen tested about 310,000 compounds, of which about 14,000 (4.5%) showed an effect of 50% or more. Effects have a minus sign here. This is one part of the list.

Biological target: human ether-à-go-go-related gene (hERG) potassium channel (human, UniProt Q12809)
Test: primary screen, population patch clamp on CHO cells stably expressing hERG
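Further: peak tail current of the secondary pulse compared with the same well before compound.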

Chain of human ether-à-go-go-related gene (hERG) potassium channel (Q12809 whole entry, looked up): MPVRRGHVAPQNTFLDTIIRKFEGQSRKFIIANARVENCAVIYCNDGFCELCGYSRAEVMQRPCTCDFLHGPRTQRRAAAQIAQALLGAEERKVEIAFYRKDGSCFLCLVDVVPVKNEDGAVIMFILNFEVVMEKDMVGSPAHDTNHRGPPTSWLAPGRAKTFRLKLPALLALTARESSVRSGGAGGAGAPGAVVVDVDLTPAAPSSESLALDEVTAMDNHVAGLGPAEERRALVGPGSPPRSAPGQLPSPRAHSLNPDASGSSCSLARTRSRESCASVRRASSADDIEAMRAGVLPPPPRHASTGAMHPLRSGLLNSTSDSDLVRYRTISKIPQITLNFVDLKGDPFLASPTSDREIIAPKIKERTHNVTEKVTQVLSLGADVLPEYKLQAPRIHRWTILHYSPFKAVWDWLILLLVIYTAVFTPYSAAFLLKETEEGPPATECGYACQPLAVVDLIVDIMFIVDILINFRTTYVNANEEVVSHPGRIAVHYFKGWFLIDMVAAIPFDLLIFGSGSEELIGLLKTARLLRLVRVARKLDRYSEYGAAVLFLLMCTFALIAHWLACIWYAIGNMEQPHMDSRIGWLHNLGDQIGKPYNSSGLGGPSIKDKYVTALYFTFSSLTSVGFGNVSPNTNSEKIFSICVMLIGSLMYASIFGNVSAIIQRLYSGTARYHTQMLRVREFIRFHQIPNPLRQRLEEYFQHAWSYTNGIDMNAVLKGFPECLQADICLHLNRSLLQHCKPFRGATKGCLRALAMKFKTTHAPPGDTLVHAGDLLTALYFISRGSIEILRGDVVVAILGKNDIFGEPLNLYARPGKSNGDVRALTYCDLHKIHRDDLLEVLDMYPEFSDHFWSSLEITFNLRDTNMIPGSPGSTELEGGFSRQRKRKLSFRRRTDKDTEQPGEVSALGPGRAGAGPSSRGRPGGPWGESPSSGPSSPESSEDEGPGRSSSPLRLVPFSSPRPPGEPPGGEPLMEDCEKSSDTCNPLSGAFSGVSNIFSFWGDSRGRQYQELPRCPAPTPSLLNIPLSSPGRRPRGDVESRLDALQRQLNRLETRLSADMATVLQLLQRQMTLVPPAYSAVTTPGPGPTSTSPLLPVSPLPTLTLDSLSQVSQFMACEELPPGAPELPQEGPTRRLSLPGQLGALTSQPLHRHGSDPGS

In order of falling “hERG current change (%, negative = inhibition) at 10uM” value:
1. COc1cc(OC)cc(-c2nnc(N(C)C(=O)c3ccncc3)s2)c1  31.2%
2. CC(=O)NC1C(Oc2ccc3c(C)cc(=O)oc3c2)OC(COC(C)=O)C(OC(C)=O)C1OC(C)=O (centres unmarked)  27.3%
3. O=S(=O)(Nn1cnnc1)c1ccc(F)cc1  22.9%
4. Cc1ccc2c(c1)c1c(c(=O)n(-c3ccccc3)c(=O)n1CC(=O)NCC1CCCO1)n2C (centres unmarked)  22.4%
5. O=C(C1=C(O)C(=O)N(Cc2ccco2)C1c1cccs1)c1cccs1 (centres unmarked)  20.6%
6. COc1ccc(Nc2nnc(SCC3CCCCO3)s2)cc1 (centres unmarked)  20.6%
7. Cc1ccc(NC(=O)CSc2nnc(CNC(=O)c3cccs3)o2)cc1  19.1%
8. Cc1cc(C)n2nnnc2n1  18.5%
9. O=C1N/C(=N\S(=O)(=O)c2ccccc2)S/C1=C\c1cc([N+](=O)[O-])ccc1O  18.3%
10. O=C(Cn1nnc(-c2cc(C(F)(F)F)cc(C(F)(F)F)c2)n1)NNC(=S)Nc1ccc(Cl)cc1  17.8%
11. COC(=O)CS(=O)(=O)c1cccc2cccnc12  16.5%
12. CCOC(=O)c1c(C)[nH]c(C(=O)CSc2nnc(-c3cccs3)n2Cc2ccccc2)c1C  16.3%
13. Nc1nc(NCc2ccccc2)n(-c2ccccc2)n1  14.9%
14. COC(=O)c1nn(-c2ccccc2)c(=O)cc1O  14.1%
15. COc1cc2c(=O)n(CCC(=O)NCC3CCCO3)c(=O)n(CC(=O)Nc3ccc(C)c(C)c3)c2cc1OC (centres unmarked)  13.6%
16. Cc1ccc(-c2c3c(nc4sc(C(N)=O)c(N)c24)CCCC3)o1  13.4%
17. COC(=O)C1C(=O)C2=C(CC1C)Nc1ccccc1NC2c1ccc(C)s1 (centres unmarked)  12.8%
18. O=C(NCCc1ccccc1)c1cc(=O)[nH]c2ccccc12  12.6%
19. CC(=O)Nc1cccc(NC(=O)c2c(-c3ccccc3)noc2C)c1  12.2%
20. CCOC(=O)C1=C(O)C(=O)N(CCCn2ccnc2)C1c1ccc(OC)cc1 (centres unmarked)  12.2%
21. Cc1cc(C)cc(OCC(=O)Nc2ccc(N3CCCC3)cc2)c1  11.9%
22. O=C(NC1=NCCS1)c1cc(-c2ccccc2)nn1-c1ccccc1  11.8%
23. Cc1ccc(-c2nnn(CC(=O)N(c3ccc(F)cc3)C(C(=O)NC3CCCC3)c3ccco3)n2)o1 (centres unmarked)  10.7%
24. NNC(=O)c1cc2c(s1)-c1cc(Cl)ccc1SC2  10.3%
25. Cc1cc(C)c(NC(=O)CCc2c(C)noc2C)c(C)c1  9.73%
26. O=C(NC(=S)Nc1ccc2oc(=O)ccc2c1)c1ccccc1F  9.66%
27. CCN1CCN(S(=O)(=O)Cc2ccccc2)CC1  8.52%
28. O=C1C(=Cc2ccc(Br)o2)C(=O)c2ccccc21  8.44%
29. Cc1ccc(C(=O)N/C(=C\c2sccc2C)C(=O)NCc2ccco2)cc1  8.35%
30. COc1ccc(CCNS(=O)(=O)c2ccc3c(c2)CCN3C(=O)CCC(=O)O)cc1OC  8.32%
31. COc1ccccc1NS(=O)(=O)c1cccc(C(=O)N/N=C/c2c(C)nn(-c3ccccc3)c2N2CCCC2)c1  8.01%
32. O=C(Cc1coc(-c2ccc(F)cc2)n1)NC1CCCCC1  7.92%
33. Cc1nccc(-c2cccc(NC(=O)Nc3ccc(Cl)cc3)c2)n1  7.12%
34. CC(C)CNC(=O)c1ccc(Cl)c(Cl)c1  7.1%
35. OCC[C@H]1C[C@H](O)[C@@H](O)[C@]2(CCc3ccccc3O2)O1  6.41%
36. COc1ccc(C/C(C)=N\NC(=O)c2c[nH]c3ccccc23)cc1OC  5.88%
37. CCOC(=O)NC1CCS(=O)(=O)C1 (centres unmarked)  5.2%
38. Cc1ccc2c(Cl)cc(Cl)c(OCC(=O)OCC(=O)Nc3ccc(C#N)cc3)c2n1  5.19%
39. C=CCSc1nnc(NC(=O)CSc2nc3ccccc3o2)s1  4.89%
40. COc1ccccc1NC(=O)C1=C(C)NC2=C(C(=O)CCC2)C1c1ccc(C)o1 (centres unmarked)  4.8%
41. CS(=O)(=O)N1CCSC1c1ccc(Br)cc1 (centres unmarked)  3.76%
42. CC1(C)CC(=O)C2=C(C1)Nc1ccccc1NC2c1ccc2c(c1)OCO2 (centres unmarked)  2.58%
43. Fc1ccc(CNC(=S)NCc2ccccc2)cc1  2.14%
44. C#CCn1c(CCNC(=O)c2ccco2)nc2ccccc21  1.81%
45. COc1ccccc1NS(=O)(=O)c1ccc(/C=C/C(=O)O)cc1  1.72%
46. O=C(COC(=O)Cc1ccccc1F)NCCc1ccccc1  0.683%
47. O=c1c2ccccc2ncn1-c1ccc(Cl)cc1Cl  -0.309%
48. O=C1NC(=O)c2cc(Oc3ccc([N+](=O)[O-])cc3)ccc21  -1.52%
49. CC1Sc2ccc(C(=O)N3CCCC(C(F)(F)F)C3)cc2NC1=O (centres unmarked)  -2.5%
50. Cc1cc(C)cc(NC(=O)CCCSc2nc3ccccc3[nH]2)c1  -2.7%
51. Cc1nc2c(oc3ccc(Cl)cc32)c(=O)[nH]1  -2.89%
52. CCc1cccc2c(C(=O)COC(=O)c3c(C)noc3C)c[nH]c12  -3.84%
53. Cc1nccn1-c1c2c(c(C#N)c3nc4ccccc4n13)CCC2  -3.86%
54. Cc1cc(C(=O)Nc2cccc(C(=O)O)c2)c(C)o1  -4.43%
55. CCCCNC(=O)c1nn(-c2ccccc2OC)c(=O)c2ccccc12  -4.46%
56. CCN(CC)Cc1c(O)c(Cl)cc2c(C)c(C)c(=O)oc12  -4.74%
57. O=c1c2ccccc2nc2n1C(CSc1ccc(F)cc1)CN2 (centres unmarked)  -5.32%
58. COc1ccc(CNC(=O)CN(C(=O)c2csnn2)c2ccc3c(c2)OCCO3)cc1  -5.5%
59. CC(c1ccccc1)C1C(C#N)=C(N)OC2=C1C(=O)CCC2 (centres unmarked)  -6.39%
60. COC(=O)c1c(NC(=O)CSc2nnnn2-c2ccccc2)sc2c1CCCC2  -6.49%
61. COc1cccc(-c2nnc(SCC(=O)OC(C)C)n2N)c1  -6.63%
62. Cc1ccccc1CN1CCN(Cc2cc3ccccc3o2)CC1CCO (centres unmarked)  -6.94%
63. C/C(=N\NC(=O)c1cccc([N+](=O)[O-])c1)c1cccs1  -6.95%
64. CCC(Oc1ccccc1F)C(=O)NCCCn1ccnc1 (centres unmarked)  -7.1%
65. CC(C)CC(C(=O)Nc1cccc(O)c1)N1C(=O)c2ccccc2C1=O (centres unmarked)  -7.13%
66. O=C(CN1C(=O)CCOc2ccccc21)Nc1ccc(Cl)c(S(=O)(=O)N2CCOCC2)c1  -7.44%
67. CC(C)(C)c1csc(NC(=O)Cn2cnc3ccccc3c2=O)n1  -8.09%
68. Cc1cc(N2CCOCC2)nc(SCC(=O)c2ccc(Cl)cc2)n1  -8.11%
69. O=C(CSCc1cccc(Br)c1)N=Nc1c(O)[nH]c2ccccc12  -9.49%
70. Cc1nc2sc(C(c3ccccc3)N3CCN(CCO)CC3)c(O)n2n1 (centres unmarked)  -10.8%
71. CNC(=O)C12CCC(C)(c3nc4cc(C)c(C)cc4nc31)C2(C)C (centres unmarked)  -13.1%
72. CCCCNC(=O)CCn1c(=O)c2cccn2c2ccc(F)cc21  -14.2%
73. COc1ccc(-c2cc(C(F)(F)F)nc(SCCC(=O)N3CCN4CCCC4C3)n2)cc1 (centres unmarked)  -15.8%
74. COc1ccc(N/N=C(\C#N)C(=N)N2CCCCC2)cc1  -16.3%
75. Cc1c(-c2ccccc2)sc(N)c1C(=O)N1CCOCC1  -17.1%
76. CC(Cc1ccccc1)[n+]1cc(/N=C(\[O-])Nc2ccccc2)on1 (centres unmarked)  -17.4%
77. CC1=Nc2cc(C(=O)NCc3ccco3)ccc2Sc2ccc(C)cc21  -23%
78. CCOC(=O)C1=C(C)NC(C)=C(C(=O)OC)C1c1cccc([N+](=O)[O-])c1 (centres unmarked)  -25.8%
79. CCOC(=O)C(=O)Nc1ccccc1C(=O)NCc1ccccc1  -27.9%
80. c1ccc(CN2CCN(Cc3c[nH]c4ccccc34)CC2)cc1  -30.2%
81. COc1cc(SC)ccc1C(=O)N1CCN(c2ccccc2F)CC1  -33.8%
82. COc1ccc(CN2CCC(N3CCC(C(=O)N4CCOCC4)CC3)CC2)c(F)c1  -38.7%
83. COc1ccc(S(=O)(=O)N2CCC(C(=O)NCCC3=CCCCC3)CC2)cc1C  -56.2%
84. C=C(C)COc1ccc2c(C)c(CCC(=O)N3C[C@H]4C[C@@H](C3)c3cccc(=O)n3C4)c(=O)oc2c1  -60.4%
85. COc1ccc(-n2cnc3cc(C(=O)NC4CCCC4)ccc32)cc1  -67.9%
86. O=C(/C=C/c1ccc(Cl)cc1Cl)N1CCN(c2ccccc2[N+](=O)[O-])CC1  -72.7%
87. CC1(C)Cc2ccccc2-c2nnc(SCC(=O)N3CCN(c4ccccc4)CC3)n21  -73.7%
88. CSCCCNC(=O)c1ccc(OC2CCN(CCc3ccccc3)CC2)cc1  -75.2%
89. CN1N=C(C(=O)N2CCc3c([nH]c4ccccc34)C2c2c(F)cccc2Cl)CCC1=O (centres unmarked)  -97.3%
